# Source: PubChem BioAssay AID743255 (National Center for Advancing Translational Sciences (NCATS), 2014)
# The whole screen tested about 390,000 compounds, of which about 910 (0.23%) were called active. Not shown: some 5% with an inconclusive outcome. Calls follow the shape of the dose curve; as a rule, active = well fitted inhibition curve with a large enough effect; inconclusive = small, poorly fitted or top-dose-only effect; inactive = no such curve, though single readings can be large or run the other way. The list shows a part of the results, in another mix than the full data.
# Biological target: Ubiquitin carboxyl-terminal hydrolase 1 (Homo sapiens) (UniProt O94782)
# Sequence of UniProt O94782 (O94782 whole entry, looked up): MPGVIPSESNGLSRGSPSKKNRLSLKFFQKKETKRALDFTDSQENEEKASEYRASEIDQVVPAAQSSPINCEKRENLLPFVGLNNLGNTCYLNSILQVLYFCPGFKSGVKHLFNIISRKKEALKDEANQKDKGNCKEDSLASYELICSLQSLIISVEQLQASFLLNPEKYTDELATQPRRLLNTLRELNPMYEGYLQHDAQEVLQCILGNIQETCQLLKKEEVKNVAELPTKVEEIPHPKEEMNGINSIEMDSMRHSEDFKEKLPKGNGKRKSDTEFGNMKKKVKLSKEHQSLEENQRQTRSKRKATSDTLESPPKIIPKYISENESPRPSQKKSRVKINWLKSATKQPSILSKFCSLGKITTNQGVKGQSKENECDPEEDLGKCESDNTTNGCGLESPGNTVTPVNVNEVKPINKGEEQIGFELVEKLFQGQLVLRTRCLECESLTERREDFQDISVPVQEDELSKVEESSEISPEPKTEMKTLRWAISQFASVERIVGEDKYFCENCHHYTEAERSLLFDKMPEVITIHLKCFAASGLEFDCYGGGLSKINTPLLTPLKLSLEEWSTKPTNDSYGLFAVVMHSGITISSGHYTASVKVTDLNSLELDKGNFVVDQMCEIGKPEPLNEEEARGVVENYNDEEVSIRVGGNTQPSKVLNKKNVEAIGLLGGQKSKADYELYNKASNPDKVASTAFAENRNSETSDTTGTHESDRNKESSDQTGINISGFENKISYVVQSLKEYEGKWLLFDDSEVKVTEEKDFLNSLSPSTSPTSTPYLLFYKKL
# Test: Inhibitors of USP1/UAF1: Primary Screen; also: nearly all actives have a fitted effect of over 60% in size
# Conditions: recombinant USP1/UAF1, Ub-Rhodamine cleavage fluorescence; activity change, negative = inhibition: at 57.1 µM (top of the series)
# From the text: Deubiquitinating enzymes (DUBs) are a class of enzymes that can cleave isopeptide bond formed between the C-terminal carboxylate of ubiquitin and a lysine side-chain amino group on the target protein. Among them, ubiquitin specific proteases (USPs) constitute the largest DUB family. Human USPs are emerging as promising targets for pharmacological intervention because of their connection to a number of human diseases, including prostate, colon and breast cancer (1, 2), pediatric acute lymphoblastic leukemia (3), and familial cylindromatosis (4). The advantage of inhibiting USPs lies in the potential specificity of therapeutic intervention that can lead to better efficacy and reduce nonspecific side effects. In a collaboration between the University of Delaware and the NIH Chemical Genomics Center, a high-throughput screen assay was developed to screen for USP1/UAF1 inhibitors. This miniaturized assay has a fluorescent read-out and is used to screen the NIH Molecular Libraries Small Molecule Repository (MLSMR) in order to identify a small molecule that inhibits USP1. NIH Chemical Genomics Center [NCGC] NIH Molecular Libraries Probe Centers Network [MLPCN] MLPCN Grant: DA030552 Assay Submitter (PI): Zhihao Zhuang, University of Delaware 1. Priolo, C., et al. (2006) The isopeptidase USP2a protects human prostate cancer from apoptosis. Cancer Res 66, 8625-8632 2. Popov, N., et al. (2007) The ubiquitin-specific protease USP28 is required for MYC stability. Nat Cell Biol 9, 765-774 3. De Pitta, C., et al. (2005) A leukemia-enriched cDNA microarray platform identifies new transcripts with relevance to the biology of pediatric acute lymphoblastic leukemia. Haematologica 90, 890-898 4. Kovalenko, A., et al. (2003) The tumour suppressor CYLD negatively regulates NF-kappaB signalling by deubiquitination. Nature 424, 801-805
# 3 microliters of reagents (buffer in columns 3 and 4 as negative control and 1nM USP1/UAF1 complex in columns 1, 2, and 5-48) are dispensed into Greiner black solid bottom 1536-well assay plates. Compounds are then transferred via Kalypsys pin tool equipped with 1536-pin array (10nl slotted pins, V&P Scientific, San Diego, CA). Following an incubation step of 15 min at room temperature, 1ul of Ub-Rho substrate (150nM final concentration) is added to initiate the reaction. The plates are immediately centrifuged at 1000 rpm for 15 seconds, and subsequently transferred to a ViewLux high-throughput CCD imager (PerkinElmer) wherein kinetic measurements of fluorescence are acquired using 480 nm excitation/540 nm emission filter set (6 reads every 60 seconds, see Table 1). All reagents are diluted in an assay buffer consisting of 50mM HEPES (pH 7.8), 0.5mM EDTA, 0.1 mg/ml BSA, 1mM TCEP, and 0.01% Tween-20.
# % is scaled to controls: 0 for no effect and ±100 for the full control effect; potency is read from the fitted curve at half-maximal effect.
SMILES,Potency,"activity change, negative = inhibition"
COC(=O)CN1C(=S)N(c2ccc(OC)cc2)C(=O)/C1=C/c1ccc(N2CCOCC2)cc1,active: 28.2 µM,
C[C@@H]1CCC[C@]2(O[C@@H](CCO)C[C@@H](O)[C@@H]2O)O1,,inactive: -16.1%
COc1cccc(S(=O)(=O)N(C)C[C@H]2OCc3cnnn3CCCC(=O)N([C@@H](C)CO)C[C@@H]2C)c1,,inactive: -26%
O=C(CCN1C(=O)c2ccccc2S1(=O)=O)Nc1cc(Cl)ccc1Cl,,inactive: 3.39%
COc1cccc(CNC(=O)CNS(=O)(=O)c2ccc3nc(C)sc3c2)c1,,inactive: 37.7%
O=C1[C@H](Cc2ccccc2)NCCCC[C@H](c2ccco2)N1Cc1ccccc1,,inactive: -0.728%
C=CC[C@H](CC(=O)N[C@H](CO)Cc1ccccc1)C(=O)N[C@H](COC(=O)[C@H](CC=C)CC(=O)OC(C)(C)C)Cc1c[nH]c2ccccc12,,inactive: -30.7%
O=C(O)CCn1cc(/C=C\C(=O)c2ccc(Cl)cc2)c(-c2cccc(Br)c2)n1,,inactive: -20.6%
O=C1c2ccccc2-c2onc3ccc(NCCCn4ccnc4)c1c23,active: 28.2 µM,
O=C1C=C(O)c2[nH]c(=O)ccc2C1=O,active: 25.1 µM,
Nc1ccc2nc3c(=O)n(CCc4ccccc4)c(=O)[nH]c3nc2c1,active: 15.8 µM,
CN(C)CC[C@@H](c1ccc(Br)cc1)c1ccccn1,,inactive: -17.8%
Nc1nnc(SCC(=O)Nc2ccccc2)s1,,inactive: -15.3%
c1ccc(-c2cnn3c(-c4ccccc4)c(-c4ccccc4)nc3n2)cc1,active: 1.41 µM,
C[C@@H]1COC(=O)[C@H](CC(=O)OC(C)(C)C)C/C=C\C[C@@H](CC(=O)NCCO)C(=O)N1,,inactive: 22%
C/C=C(\C)C(=O)OC1CC(C)(C)C[C@H]2C3=CC[C@@H]4[C@@]5(C)CCC(O[C@@H]6O[C@@H](C(=O)O)[C@@H](O)C(O[C@@H]7OC[C@H](O)[C@@H](O)[C@@H]7O[C@@H]7OC(CO)C(O)[C@@H](O)[C@@H]7O)C6O[C@@H]6OC(CO)C(O)C(O)C6O)[C@@](C)(CO)[C@@H]5CC[C@]4(C)[C@]3(C)CC(O)[C@@]12CO (stereo partly specified),,inactive: -21.9%
C[C@H]1CN([C@@H](C)CO)C(=O)CCCn2cc(nn2)CO[C@@H]1CN(C)C(=O)Nc1cccc(C(F)(F)F)c1,,inactive: -22.4%
COC(=O)c1ccc(NC(=O)N2CCc3c([nH]c4ccccc34)C2c2ccc(C)cc2)cc1 (stereo unspecified),,inactive: -25.9%
CN(C[C@H](Cc1ccccc1)N(C[C@@H](CC1CCCCC1)N(CCc1ccccc1)N=O)N=O)N=O,,inactive: -16.4%
CCSc1ccc([C@@H]2[C@@H]3C(=O)N(CC)C(=O)[C@@H]3[C@]3(C(=O)OC)CCCCN23)cc1,,inactive: -17.3%
O=c1cc2nc(-c3cccs3)nc(SCCOc3ccc(Cl)cc3)n2[nH]1,,inactive: 35.8%
O=C(C[C@H]1C/C=C\CC[C@@H](Cc2ccc(F)cc2)C(=O)OC[C@H]2CCCN2C1=O)N[C@H](CO)Cc1ccccc1,,inactive: -4.46%
Cc1ccc(O)c(NC(=O)c2noc3c2CCCCC3)c1,,inactive: -16.5%
C[C@@H]1CN([C@@H](C)CO)C(=O)CCCn2nncc2CO[C@H]1CN(C)S(=O)(=O)c1ccccc1F,,inactive: -6.73%
O=C1/C(=C\c2cccnc2)Sc2ccccc21,,inactive: -11.8%
Oc1sc(C=Nc2ccc(F)cc2)c2ccccc12,active: 31.6 µM,

SMILES,Potency,"activity change, negative = inhibition"
CCO[C@H]1OC(C(=O)NC2CC2)=C[C@@H](c2ccc(Br)cc2)[C@@H]1CCCO,,inactive: -23.4%
COC(=O)c1cc(C(=O)c2cc(F)ccc2O)cn2c(=O)c3c(C)c(C)sc3nc12,,inactive: 35.7%
COc1ccc(N(CC(=O)N2CCN(c3cccc(Cl)c3)CC2)S(=O)(=O)c2c(C)noc2C)cc1,,inactive: -27.1%
C=CC[C@@H](Cc1ccc(F)cc1)C(=O)OC[C@@H]1CCCN1C(=O)[C@@H](CC=C)CC(=O)N[C@H](CO)Cc1ccccc1,,inactive: -28.4%
CCc1c(C)sc(NC(=O)c2cc(-c3ccc(OC)c(OC)c3)on2)c1C#N,,inactive: -3.31%
C=CCC[C@@H](Cc1ccc(F)cc1)C(=O)OC[C@@H](NC(=O)[C@@H](CC=C)CC(=O)N(CCO)Cc1ccccc1)c1ccccc1,,inactive: -22.5%
CCc1ccccc1NC(=O)Cn1nnc(C(=O)NCc2cccc(OC)c2)c1N,,inactive: -19%
NC(=S)N=Nc1c(O)cc(O)c2[nH]c(=O)ccc12,active: 17.8 µM,
CN1/C(=C\C=C2/SC(=S)N(CC(=O)O)C2=O)C(C)(C)c2ccccc21,active: 25.1 µM,
NC(=O)c1sc2nnc(-c3ccccc3)c(-c3ccccc3)c2c1N,,inactive: 50.3%
COC(=O)[C@@]12CCCCN1[C@H](c1ccc(-c3cccc(Cl)c3)c(OC)c1)[C@H]1C(=O)N(C)C(=O)[C@H]12,,inactive: -13.8%
Cc1cc(/C=C2/SC(=O)N(CC(=O)N3CCCC3)C2=O)c(C)n1C,,inactive: 79.2%
CC1(C)N([O-])c2cc([N+](=O)[O-])ccc2[N+]1=O,active: 25.1 µM,
CN(C)c1ccc(C=C(c2nnnn2-c2ccccc2)c2nnnn2-c2ccccc2)cc1,,inactive: 31.1%
OCC[C@@H]1C[C@H](O)[C@@H](O)[C@]2(CCCCO2)O1,,inactive: 10.9%
CN(C)c1ccc(/C=C(\C#N)c2nc3ccccc3c(=O)[nH]2)cc1,,inactive: 95.2%
C[C@@H]1CN([C@@H](C)CO)S(=O)(=O)c2ccc(Br)cc2O[C@H]1CN(C)C(=O)Nc1ccc2c(c1)OCO2,,inactive: -24.5%
O=C1NC[C@H](c2ccccc2)OC(=O)[C@@H](Cc2ccc(F)cc2)CC/C=C/C[C@H]1CC(=O)N(CCO)Cc1ccccc1,,inactive: -8.88%
C[C@H]1Cn2cnc(C(=O)N[C@@H](Cc3c[nH]c4ccccc34)C(=O)OC(C)(C)C)c2C(=O)N1,,inactive: -24.4%
CCc1nnc(NS(=O)(=O)c2ccc(NC(=S)NC(=O)/C=C/c3ccc(C(C)C)cc3)cc2)s1,active: 25.1 µM,
Cc1ccc(/C(C#N)=C\c2ccc(N3CCOCC3)o2)cc1,active: 25.1 µM,
C=CC[C@@H](CC(=O)OC(C)(C)C)C(=O)OC[C@H]1CCCN1C(=O)[C@@H](CC=C)CC(=O)N[C@H](CO)Cc1ccccc1,,inactive: -15.5%
Cc1cccc(C(=O)Nc2sc3c(c2C(=O)O)CCCC3)c1,,inactive: -8.91%
CCO[C@H]1OC(C(=O)NC2CC2)=C[C@@H](c2ccccc2)[C@@H]1CCCO,,inactive: -7.89%
O=C(O)CCNc1cc(N2CCN(C(=O)c3ccco3)CC2)c2noc3c2c1C(=O)c1ccccc1-3,active: 14.1 µM,
